# From the supplement of paper PMC8728848
# This is one part of the list.
# Key:
# Assay in all cases: glycan array binding signal (z-score within array); higher = stronger binding
# Conditions in all cases: glycan notation: IUPAC condensed, linker removed
# [1] = molecular target: GlcNAc(b1-2)[GlcNAc(b1-6)]Man(a1-6)[GlcNAc(b1-2)Man(a1-3)]Man(b1-4)GlcNAc(b1-4)GlcNAc
# Method in brief: (§1)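 Glycan array data were curated from 3228 arrays in the Consortium for Functional Glycomics database and kept only where the protein sequence was available. Glycan names were converted to IUPAC-condensed notation, and columns mapping to the same glycan were averaged. The binding signal is a within-array Z-score, averaged across arrays of the same protein sequence at different concentrations or buffers and across linkers. Negative Z-scores can be read as non-binding.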
# [2] = molecular target: GlcNAc(b1-2)[GlcNAc(b1-6)]Man(a1-6)[GlcNAc(b1-2)Man(a1-3)]Man(b1-4)GlcNAc(b1-4)[Fuc(a1-6)]GlcNAc
# Method in brief: as §1
# [3] = molecular target: GlcNAc(b1-2)[GlcNAc(b1-6)]Man(a1-6)[GlcNAc(b1-4)][GlcNAc(b1-2)Man(a1-3)]Man(b1-4)GlcNAc(b1-4)GlcNAc
# Method in brief: as §1
# [4] = molecular target: GlcNAc(b1-3)Fuc
# Method in brief: as §1
# [5] = molecular target: GlcNAc(b1-3)Gal
# Method in brief: as §1
# [6] = molecular target: GlcNAc(b1-3)Gal(b1-3)GalNAc
# Method in brief: as §1
# [7] = molecular target: GlcNAc(b1-3)Gal(b1-4)Glc
# Method in brief: as §1
# [8] = molecular target: GlcNAc(b1-3)Gal(b1-4)GlcNAc
# Method in brief: as §1
# [9] = molecular target: GlcNAc(b1-3)Gal(b1-4)GlcNAc(b1-2)Man(a1-3)[GlcNAc(b1-3)Gal(b1-4)GlcNAc(b1-2)Man(a1-6)]Man(b1-4)GlcNAc(b1-4)GlcNAc
# Method in brief: as §1
# [10] = molecular target: GlcNAc(b1-3)Gal(b1-4)GlcNAc(b1-2)Man(a1-3)[GlcNAc(b1-3)Gal(b1-4)GlcNAc(b1-2)Man(a1-6)]Man(b1-4)GlcNAc(b1-4)[Fuc(a1-6)]GlcNAc
# Method in brief: as §1
# [11] = molecular target: GlcNAc(b1-3)Gal(b1-4)GlcNAc(b1-2)[GlcNAc(b1-3)Gal(b1-4)GlcNAc(b1-6)]Man(a1-6)[GlcNAc(b1-3)Gal(b1-4)GlcNAc(b1-2)Man(a1-3)]Man(b1-4)GlcNAc(b1-4)GlcNAc
# Method in brief: as §1
# [12] = molecular target: GlcNAc(b1-3)Gal(b1-4)GlcNAc(b1-3)Gal(b1-4)GlcNAc
# Method in brief: as §1
# [13] = molecular target: GlcNAc(b1-3)Gal(b1-4)GlcNAc(b1-3)Gal(b1-4)GlcNAc(b1-2)Man(a1-3)[GlcNAc(b1-3)Gal(b1-4)GlcNAc(b1-3)Gal(b1-4)GlcNAc(b1-2)Man(a1-6)]Man(b1-4)GlcNAc(b1-4)GlcNAc
# Method in brief: as §1
# [14] = molecular target: GlcNAc(b1-3)Gal(b1-4)GlcNAc(b1-3)Gal(b1-4)GlcNAc(b1-2)Man(a1-3)[GlcNAc(b1-3)Gal(b1-4)GlcNAc(b1-3)Gal(b1-4)GlcNAc(b1-2)Man(a1-6)]Man(b1-4)GlcNAc(b1-4)[Fuc(a1-6)]GlcNAc
# Method in brief: as §1
# [15] = molecular target: GlcNAc(b1-3)Gal(b1-4)GlcNAc(b1-3)Gal(b1-4)GlcNAc(b1-2)[GlcNAc(b1-3)Gal(b1-4)GlcNAc(b1-3)Gal(b1-4)GlcNAc(b1-6)]Man(a1-6)[GlcNAc(b1-3)Gal(b1-4)GlcNAc(b1-3)Gal(b1-4)GlcNAc(b1-2)Man(a1-3)]Man(b1-4)GlcNAc(b1-4)[Fuc(a1-6)]GlcNAc
# Method in brief: as §1
# [16] = molecular target: GlcNAc(b1-3)Gal(b1-4)GlcNAc(b1-3)Gal(b1-4)GlcNAc(b1-3)Gal(b1-4)GlcNAc(b1-2)Man(a1-3)[GlcNAc(b1-3)Gal(b1-4)GlcNAc(b1-3)Gal(b1-4)GlcNAc(b1-3)Gal(b1-4)GlcNAc(b1-2)Man(a1-6)]Man(b1-4)GlcNAc(b1-4)GlcNAc
# Method in brief: as §1
# [17] = molecular target: GlcNAc(b1-3)Gal(b1-4)GlcNAc(b1-3)Gal(b1-4)GlcNAc(b1-3)Gal(b1-4)GlcNAc(b1-2)Man(a1-3)[GlcNAc(b1-3)Gal(b1-4)GlcNAc(b1-3)Gal(b1-4)GlcNAc(b1-3)Gal(b1-4)GlcNAc(b1-2)Man(a1-6)]Man(b1-4)GlcNAc(b1-4)[Fuc(a1-6)]GlcNAc
# Method in brief: as §1
# [18] = molecular target: GlcNAc(b1-3)Gal(b1-4)GlcNAc(b1-3)Gal(b1-4)GlcNAc(b1-3)Gal(b1-4)GlcNAc(b1-2)[GlcNAc(b1-3)Gal(b1-4)GlcNAc(b1-3)Gal(b1-4)GlcNAc(b1-3)Gal(b1-4)GlcNAc(b1-6)]Man(a1-6)[GlcNAc(b1-3)Gal(b1-4)GlcNAc(b1-3)Gal(b1-4)GlcNAc(b1-3)Gal(b1-4)GlcNAc(b1-2)Man(a1-3)]Man(b1-4)GlcNAc(b1-4)[Fuc(a1-6)]GlcNAc
# Method in brief: as §1
# [19] = molecular target: GlcNAc(b1-3)Gal(b1-4)GlcNAc(b1-3)Gal(b1-4)GlcNAc(b1-3)Gal(b1-4)GlcNAc(b1-3)Gal(b1-4)GlcNAc(b1-2)Man(a1-3)[GlcNAc(b1-3)Gal(b1-4)GlcNAc(b1-3)Gal(b1-4)GlcNAc(b1-3)Gal(b1-4)GlcNAc(b1-3)Gal(b1-4)GlcNAc(b1-2)Man(a1-6)]Man(b1-4)GlcNAc(b1-4)GlcNAc
# Method in brief: as §1
# [20] = molecular target: GlcNAc(b1-3)Gal(b1-4)GlcNAc(b1-3)Gal(b1-4)GlcNAc(b1-3)Gal(b1-4)GlcNAc(b1-3)Gal(b1-4)GlcNAc(b1-2)Man(a1-3)[GlcNAc(b1-3)Gal(b1-4)GlcNAc(b1-3)Gal(b1-4)GlcNAc(b1-3)Gal(b1-4)GlcNAc(b1-3)Gal(b1-4)GlcNAc(b1-2)Man(a1-6)]Man(b1-4)GlcNAc(b1-4)[Fuc(a1-6)]GlcNAc
# Method in brief: as §1
# [21] = molecular target: GlcNAc(b1-3)Gal(b1-4)GlcNAc(b1-3)Gal(b1-4)GlcNAc(b1-3)Gal(b1-4)GlcNAc(b1-3)Gal(b1-4)GlcNAc(b1-2)[GlcNAc(b1-3)Gal(b1-4)GlcNAc(b1-3)Gal(b1-4)GlcNAc(b1-3)Gal(b1-4)GlcNAc(b1-3)Gal(b1-4)GlcNAc(b1-6)]Man(a1-6)[GlcNAc(b1-3)Gal(b1-4)GlcNAc(b1-3)Gal(b1-4)GlcNAc(b1-3)Gal(b1-4)GlcNAc(b1-3)Gal(b1-4)GlcNAc(b1-2)Man(a1-3)]Man(b1-4)GlcNAc(b1-4)[Fuc(a1-6)]GlcNAc
# Method in brief: as §1
# [22] = molecular target: GlcNAc(b1-3)Gal(b1-4)GlcNAc(b1-3)Gal(b1-4)GlcNAc(b1-3)GalNAc
# Method in brief: as §1
# [23] = molecular target: GlcNAc(b1-3)Gal(b1-4)GlcNAc(b1-3)GalNAc
# Method in brief: as §1
binder,measurement,setting,value
"CLEC5A (Homo sapiens), Q9NY25 (protein) MNWHMIISGLIVVVLKVVGMTLFLLYFPQIFNKSNDGFTTTRSYGTVSQIFGSSSPSPNGFITTRSYGTVCPKDWEFYQARCFFLSTSESSWNESRDFCKGKGSTLAIVNTPEKLKFLQDITDAEKYFIGLIYHREEKRWRWINNSVFNGNVTNQNQNFNCATIGLTKTFDAASCDISYRRICEKNAK",glycan array binding signal (z-score),[1],-0.159
same,glycan array binding signal (z-score),[2],-0.209
same,glycan array binding signal (z-score),[3],-0.217
same,glycan array binding signal (z-score),[4],-0.263
same,glycan array binding signal (z-score),[5],-0.324
same,glycan array binding signal (z-score),[6],0.092
same,glycan array binding signal (z-score),[7],6.6
same,glycan array binding signal (z-score),[8],-0.074
same,glycan array binding signal (z-score),[9],-0.117
same,glycan array binding signal (z-score),[10],-0.014
same,glycan array binding signal (z-score),[11],0.387
same,glycan array binding signal (z-score),[12],-0.611
same,glycan array binding signal (z-score),[13],0.016
same,glycan array binding signal (z-score),[14],-0.026
same,glycan array binding signal (z-score),[15],-0.102
same,glycan array binding signal (z-score),[16],-0.189
same,glycan array binding signal (z-score),[17],0.14
same,glycan array binding signal (z-score),[18],-0.068
same,glycan array binding signal (z-score),[19],-0.03
same,glycan array binding signal (z-score),[20],1.7
same,glycan array binding signal (z-score),[21],-0.084
same,glycan array binding signal (z-score),[22],-0.13
same,glycan array binding signal (z-score),[23],-0.149
